Format in all cases: in vivo
Assay [1] deals with Puccinia recondita. The assay is described as follows: Test Example E: Brown rust on wheat. Conditions: for Test E control value (brown rust on wheat): preventive, control value class; for Test E (control value class, brown rust on wheat): in vivo. The text has this: [Test Example E] Brown Rust on Wheat
For assay [2], the system named is Blumeria graminis f sp. hordei. The assay is described as follows: Test Example D: Powdery mildew on barley. Conditions: for Test D control value (powdery mildew on barley): preventive, control value class; for Test D (control value class, powdery mildew on barley): in vivo. The source says:
[Test Example D] Powdery Mildew on Barley
After the sprayed dilutions were dried, conidia of Blumeria graminis f sp. hordei were inoculated to the plants by shaking off.

The test system of assay [3] is Plasmopara viticola. The assay is described as follows: Test Example G: Downy mildew on vine. The conditions noted are these: for Test G (control value class): 250 ppm spray; for Test G control value (downy mildew on vine): 250 ppm spray (2.5 ml/pot), preventive, control value class; for Test G (control value class, downy mildew on vine): 250 ppm, sprayed 2.5 ml/pot before inoculation. The text has this:
[Test Example G] Downy Mildew on Vine
Seeds of a test plant (grape variety: Neomuscat) were planted followed by cultivating until three to four first leaves appeared. […] After the sprayed dilutions were dried, a zoosporangia suspension (1-2×10^4 zoosporangia/ml) of Plasmopara viticola was inoculated to the plants by spraying.

Assay [4] relates to Alternaia brassicicola. The assay is described as follows: Test Example C: Alternaria sooty spot on cabbage. The conditions noted are these: for Test C (control value class): Alternaria sooty spot on cabbage; for Test C control value (Alternaria sooty spot on cabbage): preventive, control value class; for Test C (control value class, Alternaria sooty spot on cabbage): in vivo. The text has this:
[Test Example C] Alternaria Sooty Spot on Cabbage
Seeds of a test plant (cabbage variety: Shikidori) were planted followed by cultivating until the cotyledons extended.

The test system of assay [5] is Botrytis cinerea. The assay is described as follows: Test Example B: Gray mold on tomato. The conditions noted are these: for Test B control value (gray mold on tomato): preventive, control value class; for Test B (control value class, gray mold on tomato): in vivo. The source says: [Test Example B] Gray Mold on Tomato
Seeds of a test plant (tomato variety: Oogata Fukuju) were planted followed by cultivating until three to five first leaves (true leaves) appeared.

Setting [6] is: brown rust on wheat, Puccinia recondita, 250 ppm spray.
[7] abbreviates: powdery mildew on barley, 250 ppm spray.
The mark [8] stands for this setting: downy mildew on vine, Plasmopara viticola, 7-10 days after inoculation.
The mark [9] stands for this setting: gray mold on tomato, Botrytis cinerea, 250 ppm spray.
[10] abbreviates: Brown rust on wheat, control value=100{1-(n/3)}.
Where [11] appears, read: Powdery mildew on barley, control value=100{1-(n/3)}.
Where [12] appears, read: Downy mildew on vine, 2.5 ml/pot, evaluated 7-10 days after inoculation.
The mark [13] stands for this setting: Gray mold on tomato, control value=100{1-(n/3)}.
The mark [14] stands for this setting: evaluated 7-10 days after inoculation.

As to `CCn1c(-c2c(F)cc(F)cc2F)c(-c2cccc(F)c2Cl)cc(Br)c1=O` [Compound 487], the “Test E (control value class)” value in assay [1] (setting [6]) is on record as “H (H shows more than 50% of control values)”. Further, the “Test D (control value class)” value in assay [2] (setting [7]) is listed as “H (H shows more than 50% of control values)”. Moreover, the “Test G (control value class)” value in assay [3] (setting [8]) is listed as “L (L shows 50% or less of control values)”. For the same compound, the “Test C (control value class)” value in assay [4] (250 ppm spray) was “H (H shows more than 50% of control values)”. Moreover, the “Test B (control value class)” value in assay [5] (setting [9]) is “H (H shows more than 50% of control values)”.
As for `Cn1c(-c2c(F)cc(F)cc2F)c(-c2cc(F)ccc2Cl)cc(Br)c1=O` [Compound 757], the “Test E (control value class)” value in assay [1] (setting [10]) is reported as “H (H shows more than 50% of control values)”. Moreover, the “Test D (control value class)” value in assay [2] (setting [11]) is “H (H shows more than 50% of control values)”. Further, in assay [3] (setting [12]), the “Test G (control value class)” value is listed as “H (H shows more than 50% of control values)”. For the same compound, the “Test C (control value class)” value in assay [4] (control value=100{1-(n/3)}) is “H (H shows more than 50% of control values)”. In addition, the “Test B (control value class)” value in assay [5] (setting [13]) is “H (H shows more than 50% of control values)”.
Take `Cn1c(-c2c(F)cccc2F)c(-c2cccc(F)c2Cl)cc(Br)c1=O` [Compound 753]: the “Test E (control value class)” value in assay [1] (setting [10]) was “H (H shows more than 50% of control values)”. Besides, in assay [2] (setting [11]), the “Test D (control value class)” value was “H (H shows more than 50% of control values)”. Also, the “Test G (control value class)” value in assay [3] (setting [12]) is recorded as “H (H shows more than 50% of control values)”. Besides, the “Test C (control value class)” value in assay [4] (control value=100{1-(n/3)}) was “H (H shows more than 50% of control values)”. The “Test B (control value class)” value in assay [5] (setting [13]) is on record as “H (H shows more than 50% of control values)”.
Regarding `CCn1c(-c2c(F)cccc2F)c(-c2cc(OCCCOC)ccc2Cl)ccc1=O` [Compound 310], in assay [1] (250 ppm spray), the “Test E control value (brown rust on wheat)” value (from here on “Test E control value”) is “H (H shows more than 50% of control values)”. In addition, the “Test D control value (powdery mildew on barley)” value (shortened to “Test D control value”) in assay [2] (250 ppm spray) is given as “H (H shows more than 50% of control values)”. In assay [3] (7-10 days after inoculation), the “Test G control value (downy mildew on vine)” value (“Test G control value” below) is “L (L shows 50% or less of control values)”. In addition, the “Test C control value (Alternaria sooty spot on cabbage)” value (from here on “Test C control value”) in assay [4] (250 ppm spray) is on record as “H (H shows more than 50% of control values)”. Besides, in assay [5] (250 ppm spray), the “Test B control value (gray mold on tomato)” value (shortened to “Test B control value”) is recorded as “H (H shows more than 50% of control values)”.
`CCn1c(-c2c(F)cc(F)cc2F)c(-c2cc(F)c(F)cc2F)ccc1=O` [Compound 635]: the “Test E (control value class, brown rust on wheat)” value in assay [1] is recorded as “H (H shows more than 50% of control values)”. Also, the “Test D (control value class, powdery mildew on barley)” value in assay [2] is “H (H shows more than 50% of control values)”. In assay [3] (setting [14]), the “Test G (control value class, downy mildew on vine)” value is “L (L shows 50% or less of control values)”. Also, the “Test C (control value class, Alternaria sooty spot on cabbage)” value in assay [4] is recorded as “H (H shows more than 50% of control values)”. Moreover, the “Test B (control value class, gray mold on tomato)” value in assay [5] is given as “H (H shows more than 50% of control values)”.
For the compound `Cn1c(-c2c(F)cccc2F)c(-c2cc(OCC(F)(F)F)ccc2Cl)ccc1=O` [Compound 263], the “Test E control value” value in assay [1] (250 ppm spray) was “H (H shows more than 50% of control values)”. Besides, the “Test D control value” value in assay [2] (250 ppm spray) is on record as “L (L shows 50% or less of control values)”. The “Test G control value” value in assay [3] (7-10 days after inoculation) is listed as “H (H shows more than 50% of control values)”. Besides, in assay [4] (250 ppm spray), the “Test C control value” value is recorded as “H (H shows more than 50% of control values)”. The “Test B control value” value in assay [5] (250 ppm spray) is given as “H (H shows more than 50% of control values)”.
Regarding `Cc1ccc(-c2cc(Br)c(=O)n(C)c2-c2c(F)cccc2F)cc1` [Compound 273], the “Test E control value” value in assay [1] (250 ppm spray) is listed as “H (H shows more than 50% of control values)”. Further, the “Test D control value” value in assay [2] (250 ppm spray) is on record as “H (H shows more than 50% of control values)”. Moreover, the “Test G control value” value in assay [3] (7-10 days after inoculation) is listed as “H (H shows more than 50% of control values)”. For the same compound, the “Test C control value” value in assay [4] (250 ppm spray) is given as “H (H shows more than 50% of control values)”. Besides, the “Test B control value” value in assay [5] (250 ppm spray) is “H (H shows more than 50% of control values)”.
Take `COc1cccc(-c2cc(C)c(=O)n(C)c2-c2c(F)cc(F)cc2F)c1Cl` [Compound 671]: the “Test E (control value class, brown rust on wheat)” value in assay [1] is given as “H (H shows more than 50% of control values)”. Moreover, in assay [2], the “Test D (control value class, powdery mildew on barley)” value was “H (H shows more than 50% of control values)”. Besides, in assay [3] (setting [14]), the “Test G (control value class, downy mildew on vine)” value is “H (H shows more than 50% of control values)”. For the same compound, the “Test C (control value class, Alternaria sooty spot on cabbage)” value in assay [4] is “H (H shows more than 50% of control values)”. Besides, in assay [5], the “Test B (control value class, gray mold on tomato)” value is recorded as “H (H shows more than 50% of control values)”.
Consider `COc1cc(OC)c(Cl)c(-c2ccc(=O)n(CC(F)(F)F)c2-c2c(F)cccc2F)c1` [Compound 335], for which the “Test E control value” value in assay [1] (250 ppm spray) is “H (H shows more than 50% of control values)”. The “Test D control value” value in assay [2] (250 ppm spray) is given as “H (H shows more than 50% of control values)”. For the same compound, in assay [3] (7-10 days after inoculation), the “Test G control value” value was “H (H shows more than 50% of control values)”. Further, in assay [4] (250 ppm spray), the “Test C control value” value was “H (H shows more than 50% of control values)”. In assay [5] (250 ppm spray), the “Test B control value” value is given as “H (H shows more than 50% of control values)”.
As for `CCOc1cc(F)c(-c2c(-c3cc(OC)cc(OC)c3Cl)ccc(=O)n2CC)c(F)c1` [Compound 378], in assay [1] (setting [6]), the “Test E (control value class)” value is given as “H (H shows more than 50% of control values)”. Besides, the “Test D (control value class)” value in assay [2] (setting [7]) is “H (H shows more than 50% of control values)”. Moreover, the “Test G (control value class)” value in assay [3] (setting [8]) was “H (H shows more than 50% of control values)”. Also, the “Test C (control value class)” value in assay [4] (250 ppm spray) is “H (H shows more than 50% of control values)”. In assay [5] (setting [9]), the “Test B (control value class)” value is listed as “H (H shows more than 50% of control values)”.
For `CCn1c(-c2c(F)cccc2F)c(-c2ccc(Cl)cc2F)cc(Cl)c1=O` [Compound 417], the “Test E (control value class)” value in assay [1] (setting [6]) is listed as “H (H shows more than 50% of control values)”. Besides, the “Test D (control value class)” value in assay [2] (setting [7]) is reported as “H (H shows more than 50% of control values)”. The “Test G (control value class)” value in assay [3] (setting [8]) was “L (L shows 50% or less of control values)”. Further, the “Test C (control value class)” value in assay [4] (250 ppm spray) is “H (H shows more than 50% of control values)”. Further, the “Test B (control value class)” value in assay [5] (setting [9]) was “L (L shows 50% or less of control values)”.
For the compound `COc1cc(OC)c(Cl)c(-c2ccc(=O)n(C)c2-c2c(F)cc(OCC(F)F)cc2F)c1` [Compound 338], the “Test E control value” value in assay [1] (250 ppm spray) is recorded as “H (H shows more than 50% of control values)”. Moreover, in assay [2] (250 ppm spray), the “Test D control value” value is on record as “L (L shows 50% or less of control values)”. In addition, the “Test G control value” value in assay [3] (7-10 days after inoculation) is recorded as “H (H shows more than 50% of control values)”. Moreover, the “Test C control value” value in assay [4] (250 ppm spray) is “H (H shows more than 50% of control values)”. Also, the “Test B control value” value in assay [5] (250 ppm spray) is listed as “H (H shows more than 50% of control values)”.
With `CCN1C(=O)CCC(c2cc(F)cc(F)c2F)=C1c1c(F)cccc1F` [Compound 436], the “Test E (control value class)” value in assay [1] (setting [6]) is recorded as “H (H shows more than 50% of control values)”. For the same compound, the “Test D (control value class)” value in assay [2] (setting [7]) is given as “H (H shows more than 50% of control values)”. In assay [3] (setting [8]), the “Test G (control value class)” value is recorded as “L (L shows 50% or less of control values)”. Also, the “Test C (control value class)” value in assay [4] (250 ppm spray) is given as “L (L shows 50% or less of control values)”. Moreover, in assay [5] (setting [9]), the “Test B (control value class)” value is “H (H shows more than 50% of control values)”.

The values are drawn from patent publication US10299477B2 (priority 2015, dated 2019).
